From PubChem BioAssay AID504832 (National Center for Advancing Translational Sciences (NCATS), 2011)
Hit rate of the full screen: of about 310,000 compounds, about 18,000 (5.8%) were called active. The inconclusive results got no clear call from the source; some entries with a clear call stand among them for comparison. Calls come from the whole dose curve; as a rule, active = well fitted inhibition curve with a large enough effect; inconclusive = small, poorly fitted or top-dose-only effect, or another doubt; inactive = no such curve, though single readings can be large or run the other way. No potency is given beside an inconclusive call; the fits are too rough.

assay: Primary qHTS for delayed death inhibitors of the malarial parasite plastid, 48 hour incubation; settings: P. falciparum luciferase growth in erythrocytes; series mostly up to 28.7 µM; activity change, negative = inhibition: at the top concentration
Method in brief: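 Cell-based growth assay: transgenic P. falciparum expressing firefly luciferase, cultured in red cells within RPMI 1640 containing 0.5% w/v Albumax, 24 mM bicarbonate and gentamycin. A drop in luciferase activity indicates inhibition.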
% is set by controls: 0 for no effect and ±100 for the full control effect; potency is the fitted concentration of half-maximal effect; tags give direction and shape of the fitted curve.

Question: Which “activity change, negative = inhibition” value does the source give for `CC(C)c1ccc(-c2nnn(CCC#N)n2)cc1` here?
Answer: inactive: 56.4%

Question: For `COc1nc(Nc2cccc([N+](=O)[O-])c2)nc(OC)n1`, which “activity change, negative = inhibition” value is on record?
Answer: inactive: -17.3%

Question: Which “activity change, negative = inhibition” value does the source give for `Nc1ncnc2c1ncn2C1OC(C(=O)NC2CC2)C(O)C1O` (stereo not given) here?
Answer: inactive: 2.86%

Question: With `COc1ccc(C2/C=C\CN(C(=O)CC(C)C)CC(=O)N2Cc2ccc(F)cc2)cc1` (stereo not given) as the compound, how does the Potency read?
Answer: inconclusive [inhibitor, single point]

Question: For `Cc1ccc(NC(=O)/C(=C\c2cccs2)NC(=O)c2ccccc2)cc1`, which Potency is on record?
Answer: inconclusive [inhibitor, partial curve]

Question: For `Cc1ccc(C(=O)N2CCN(c3cccc(C)c3C)CC2)cc1S(=O)(=O)N1CCOCC1`, which Potency is on record?
Answer: inconclusive [inhibitor, single point]

Question: With `Cc1cc(C(=O)CN2C(=O)NC3(CCCc4ccccc43)C2=O)c(C)n1C` (stereo not given) as the compound, how does the Potency read?
Answer: inconclusive [inhibitor, single point]

Question: Which Potency does the source give for `O=C(c1cnc(N2CCN(c3ccccn3)CC2)c2ccccc12)N1CCN(c2cccc(Cl)c2)CC1` here?
Answer: active: 9.28 µM

Question: With `O=S(=O)(/N=C(/Nc1ccc(F)c(F)c1F)c1ccccc1)c1ccccc1` as the compound, how does the “activity change, negative = inhibition” value read?
Answer: inactive: 14.5%

Question: For `CCOc1ccccc1NC(=O)Cn1c(-c2ccc(Cl)cc2)noc1=O`, which Potency is on record?
Answer: active: 1.65 µM

Question: Which Potency does the source give for `O=C(COC(=O)C1(c2ccc(F)cc2)CCCC1)N1CCN(C(=O)c2ccco2)CC1` here?
Answer: inconclusive [inhibitor, partial curve, poor fit]

Question: Which “activity change, negative = inhibition” value does the source give for `COc1ccc(N2CCC(CNC(=O)Nc3ccc(C)c(C)c3)C2)cc1` (stereo not given) here?
Answer: inactive: -7.98%

Question: With `O=C(Cc1ccc(F)cc1)Oc1ccc(C(=S)N2CCCC2)cc1` as the compound, how does the “activity change, negative = inhibition” value read?
Answer: inactive: -12.5%

Question: For `Cc1cc2cc(CN(CC3CCCO3)C(=S)Nc3ccccc3)c(=O)[nH]c2cc1C` (stereo not given), which Potency is on record?
Answer: active: 11.7 µM

Question: For `COc1ccc(Cl)cc1NC(=O)CN(C)C(C)C(=O)NC(=O)NC1CCCCC1` (stereo not given), which Potency is on record?
Answer: inconclusive [inhibitor, single point]

Question: Which Potency does the source give for `COc1cccc(NC(=O)CNC(=O)[C@@H]2Cc3ccccc3CN2C(=O)OC(C)(C)C)c1` here?
Answer: inconclusive [inhibitor, single point]

Question: For `C/C(=C\c1ccccc1)CN1CCC(C(=O)N2CCC(C)CC2)CC1`, which “activity change, negative = inhibition” value is on record?
Answer: inactive: -14.1%

Question: With `CCN1C(=O)[C@H]2[C@@H](c3ccc(C)cc3)N3C(=O)N(c4ccc(C)cc4)C(=O)[C@@]3(Cc3ccc(Cl)cc3)[C@H]2C1=O` as the compound, how does the Potency read?
Answer: inconclusive [inhibitor, partial curve, poor fit]

Question: With `C[C@@H]1CC[C@H]2[C@@H](C)C(=O)O[C@@H]3O[C@@]4(C)CC[C@@H]1[C@]32OO4` as the compound, how does the Potency read?
Answer: active: 0.0033 µM

Question: With `COc1cc(OC)cc(-c2cc3ncccc3cn2)c1` as the compound, how does the “activity change, negative = inhibition” value read?
Answer: inactive: 34.7%

Question: Which “activity change, negative = inhibition” value does the source give for `Cc1ccc(S(=O)(=O)Nc2c(C)n(C)n(-c3ccccc3)c2=O)cc1C(=O)NCc1ccccn1` here?
Answer: inactive: -13.1%

Question: Which Potency does the source give for `OCCC1CN(CC(c2ccccc2)c2ccccc2)CCN1C1CCCC1` (stereo not given) here?
Answer: inconclusive [inhibitor, single point]

Question: For `CSc1ncc(C(=O)Nc2ccccc2C)c(C)n1`, which “activity change, negative = inhibition” value is on record?
Answer: inactive: 10.2%

Question: For `CN1/C(=C\C(=O)c2cccnc2)Sc2ccccc21`, which “activity change, negative = inhibition” value is on record?
Answer: inactive: 69.3%

Question: Which “activity change, negative = inhibition” value does the source give for `C#CCSc1nnnn1-c1cccc(Cl)c1` here?
Answer: inactive: 35.6%

Question: For `COc1cccc(CCNC(=O)C2CCCN(c3ncnc4c3nc3n4CCCCC3)C2)c1OC` (stereo not given), which “activity change, negative = inhibition” value is on record?
Answer: inactive: -11.2%

Question: Which Potency does the source give for `O=C(C1=C[C@@H](C2CC2)C[C@@H](OCCCCO)O1)N1CCN(Cc2ccc3c(c2)OCO3)CC1` here?
Answer: inconclusive [inhibitor, partial curve]

Question: With `Cc1ccc(S(=O)(=O)Nc2ccc(O)c3cccnc23)cc1` as the compound, how does the Potency read?
Answer: active: 6.57 µM

Question: Which Potency does the source give for `COc1cc2c(=O)n(Cc3ccco3)c(=O)n(CC(=O)c3cccc(Br)c3)c2cc1OC` here?
Answer: inconclusive [inhibitor, partial curve]

Question: Which “activity change, negative = inhibition” value does the source give for `Cc1cc(C)nc(NCCC(=O)O)n1` here?
Answer: inactive: 15.3%

Question: For `CC(C)(C)c1ccc(C(=O)NC(=S)Nc2ccc(N3CCOCC3)cc2)cc1`, which Potency is on record?
Answer: inconclusive [inhibitor, partial curve]

Question: Which Potency does the source give for `CCCCOc1ccc(-c2nnc(-c3ccncc3)o2)cc1` here?
Answer: inconclusive [inhibitor, single point]

Question: With `Fc1ccc(OCc2nc(-c3ccncc3)n[nH]2)cc1` as the compound, how does the “activity change, negative = inhibition” value read?
Answer: inactive: 6.07%

Question: Which Potency does the source give for `Cc1ccc(CNC(=O)CCc2nnc3ccc(NCCCN4CCCC4=O)nn23)cc1` here?
Answer: inconclusive [inhibitor, single point]

Question: For `CC(C)(C)OC(=O)N1CCCC(C(=O)CC#N)C1` (stereo not given), which Potency is on record?
Answer: inconclusive [inhibitor, partial curve, poor fit]

Question: With `COc1ccc(-c2cn(CCO)c(-c3ccc(Cl)nc3)n2)cc1` as the compound, how does the Potency read?
Answer: inconclusive [inhibitor, single point]

Question: With `C/C(Cn1nnc([N+](=O)[O-])n1)=N\NC(=O)c1ccncc1` as the compound, how does the “activity change, negative = inhibition” value read?
Answer: inactive: -15.2%

Question: For `O=C(NCc1ccc(F)cc1)C1CCN(S(=O)(=O)c2ccc(Br)s2)CC1`, which Potency is on record?
Answer: active: 9.28 µM

Question: For `O=C(CSc1nc(C(F)(F)F)cc(=O)[nH]1)NCC1CCCO1` (stereo not given), which Potency is on record?
Answer: inconclusive [inhibitor, partial curve, poor fit]

Question: For `CCOC(=O)CSc1nc2cc(C(=O)N3CCC(C(N)=O)CC3)ccc2c(=O)n1C1CCCCC1`, which Potency is on record?
Answer: inconclusive [inhibitor, single point]

Question: For `COc1ccccc1N(CC(=O)NC1CCCC1)C(=O)CNC(=O)c1cccs1`, which Potency is on record?
Answer: inconclusive [inhibitor, full curve, poor fit]

Question: Which Potency does the source give for `CCOc1ccc(-c2nnc(N(CC)C(=O)C3CCC3)s2)cc1` here?
Answer: inconclusive [inhibitor, single point]

Question: Which Potency does the source give for `COC(=O)/C(C#N)=C/c1c(N2CCCCCC2)nc2c(C)cccn2c1=O` here?
Answer: inconclusive [inhibitor, single point]

Question: Which “activity change, negative = inhibition” value does the source give for `CC1CN(S(=O)(=O)c2ccc(F)cc2)C(C)N1C(=O)N1CCOCC1` (stereo not given) here?
Answer: inactive: 31.3%

Question: Which Potency does the source give for `CCOC(=O)c1cc(-c2ccccc2)sc1NC(=S)Nc1cc(C)ccn1` here?
Answer: inconclusive [inhibitor, single point]

Question: Which Potency does the source give for `CC(=O)Nc1ccc2c(c1)N(C(C)=O)c1ccccc1CC2` here?
Answer: inconclusive [inhibitor, single point]

Question: Which Potency does the source give for `O=C(c1ccc(Br)cc1)c1sc(N2CCOCC2)nc1-c1ccccc1` here?
Answer: inconclusive [inhibitor, partial curve, poor fit]

Question: With `COC(=O)C(NC(=O)c1ccc(Cl)cc1)(Nc1nc(C)cs1)C(F)(F)F` (stereo not given) as the compound, how does the “activity change, negative = inhibition” value read?
Answer: inactive: 1.79%

Question: For `CC(NS(=O)(=O)c1cccc(C(=O)O)c1)C12CC3CC(CC(C3)C1)C2` (stereo not given), which Potency is on record?
Answer: inconclusive [inhibitor, single point]

Question: For `Cc1ccccc1NC(=O)COC(=O)c1ccc(S(C)(=O)=O)c([N+](=O)[O-])c1`, which “activity change, negative = inhibition” value is on record?
Answer: inactive: -15.6%

Question: For `CNC(=O)C1CC(=O)N(CCc2ccccc2)C(=Nc2ccc(OC)cc2)S1` (stereo not given), which Potency is on record?
Answer: inconclusive [inhibitor, partial curve, poor fit]

Question: For `CCCCn1c(N)c(N(CC(C)C)C(=O)CC(NC(=O)c2ccccc2)c2ccccc2)c(=O)[nH]c1=O` (stereo not given), which Potency is on record?
Answer: inconclusive [inhibitor, partial curve, poor fit]

Question: For `COc1cccc(NC(=O)Nc2nc(SC(C)(C)C)ns2)c1`, which Potency is on record?
Answer: inconclusive [inhibitor, single point]

Question: For `c1csc(CNc2ncnc3nc[nH]c23)c1`, which “activity change, negative = inhibition” value is on record?
Answer: inactive: 9.28%

Question: Which Potency does the source give for `Clc1cccc(Cl)c1CO/N=C/c1c(-c2ccccc2)nc2n1CCS2` here?
Answer: inconclusive [inhibitor, partial curve]

Question: For `Cc1ccnc(NC(=S)N2CCN(c3cccc(C(F)(F)F)c3)CC2)c1`, which Potency is on record?
Answer: inconclusive [inhibitor, single point]

Question: With `CC(C)(C)C(=O)O/N=C(\N)c1c(Cl)cccc1Cl` as the compound, how does the “activity change, negative = inhibition” value read?
Answer: inactive: 25%

Question: With `CCOc1ccc(S(=O)(=O)N2CCN(c3ccccc3)CC2)c2cccnc12` as the compound, how does the Potency read?
Answer: inconclusive [inhibitor, partial curve]

Question: Which Potency does the source give for `CC1CCCCC12NC(=O)N(CC(=O)OCc1cccc(F)c1)C2=O` (stereo not given) here?
Answer: active: 13.1 µM

Question: For `CC(=O)c1ccc(NC(=O)C(C)Nc2ccc(Cl)cc2)cc1` (stereo not given), which Potency is on record?
Answer: inconclusive [inhibitor, partial curve, poor fit]

Question: For `O=C(Cc1ccccc1)Nc1ccc(C(=O)NCC2COc3ccccc3O2)cc1` (stereo not given), which “activity change, negative = inhibition” value is on record?
Answer: inactive: 1.97%

Question: With `CC1(C(=O)O)CCC(C(=O)Nc2cccc(F)c2)C1(C)C` (stereo not given) as the compound, how does the “activity change, negative = inhibition” value read?
Answer: inactive: -0.431%

Question: For `CC[C@@]12C(=O)N(c3ccc(OC)cc3)C(=O)N1[C@H](c1cccc(C)c1)[C@@H]1C(=O)N(Cc3ccccc3)C(=O)[C@@H]12`, which Potency is on record?
Answer: inconclusive [inhibitor, partial curve, poor fit]

Question: For `C/C(=N\NC(=O)c1sccc1C)c1ccncc1`, which “activity change, negative = inhibition” value is on record?
Answer: inactive: 98.3%

Question: With `COc1ccc(CCNC(=O)C(=O)NCC2CCCN2S(=O)(=O)c2cccs2)cc1OC` (stereo not given) as the compound, how does the Potency read?
Answer: inconclusive [inhibitor, single point]

Question: For `O=C(CCCN1C(=O)c2cccc3cccc(c23)C1=O)NC1CCS(=O)(=O)C1` (stereo not given), which Potency is on record?
Answer: inconclusive [inhibitor, single point]

Question: Which Potency does the source give for `CC(c1ccncc1)C(C)c1ccncc1` (stereo not given) here?
Answer: inconclusive [inhibitor, single point]

Question: For `Cc1ccc(-c2csc3nc[nH]c(=S)c23)cc1C`, which Potency is on record?
Answer: inconclusive [inhibitor, single point]

Question: With `CCC(C)c1ccccc1NC(=O)c1cc2cccc([N+](=O)[O-])c2[nH]1` (stereo not given) as the compound, how does the Potency read?
Answer: inconclusive [inhibitor, partial curve, poor fit]

Question: Which Potency does the source give for `Cc1cc(C)n(-c2ccc(C(=O)Nc3ccc(C)c(S(=O)(=O)N4CCOCC4)c3)cc2)n1` here?
Answer: inconclusive [inhibitor, single point]
